Screen size: about 420,000 compounds; about 50,000 (12%) were called active. The shares of active, inactive and inconclusive entries below differ from those in the screen. The call rests on the fitted dose curve; in most records, active means well fitted inhibition curve with a large enough effect; inconclusive means small, poorly fitted or top-dose-only effect; inactive means flat fitted curve, though single readings scatter. Potencies of inconclusive entries are left out as doubtful fits.
assay: qHTS for Inhibitors of human tyrosyl-DNA phosphodiesterase 1 (TDP1): qHTS in cells in presence of CPT; conditions: chicken DT40 Tdp1-/-;hTDP1 cells + 20 nM CPT, ATP luminescence, 48 h; activity change, negative = growth inhibition: at 46.2 µM (top of the series) unless noted; further: nearly all actives have a fitted effect of over 55% in size
In short: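 Chicken DT40 Tdp1-/- cells stably complemented with human TDP1 were seeded at 400 cells/well in medium containing 20 nM camptothecin, exposed to pin-transferred compounds, and grown at 37 °C for at least 48 hr. Viability was read as ATP luminescence.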
On the % scale 0 is the no-effect control and ±100 the full control effect; potency means the concentration at half of the fitted maximal effect; tags describe the fitted curve by direction and shape.

Structure (SMILES) | activity change, negative = growth inhibition | Potency
NNc1nc(NCc2ccccc2)nc(N2CCOCC2)n1 | inactive: -6.94% | 
COc1ccc(CC2(C)OC(c3ccc([N+](=O)[O-])cc3)=NN2C(C)=O)cc1 (configuration not stated) |  | inconclusive [inhibitor, single point]
CCOc1ccc(C(=O)c2ccc([N+](=O)[O-])cc2Cl)cc1 | inactive: -0.493% | 
CCN(CC)S(=O)(=O)c1cc(NC(=O)CCc2c(C)noc2C)ccc1C |  | inconclusive [inhibitor, single point]
COc1ccc(CCNC(=O)c2cnn3c2NC(=C2CC2)C=C3C(F)F)cc1OC |  | active: 11.2 µM
COCCC(=O)N1CCC(Oc2ccc(C(=O)NC3CCCCC3)cc2)CC1 | inactive: -22.1% | 
COc1ccc(Nc2nc(-c3ccc4c(c3)NC(=O)CO4)cs2)cc1 |  | inconclusive [inhibitor, single point]
Cc1oc2ncn(CC(C)C)c(=O)c2c1C(=O)NCCc1ccc(Cl)cc1 |  | inconclusive [inhibitor, single point]
CCC1=C(OC(=O)N(CC)CC)N2C(=O)OC(=NCC3CC3)[C@]2(Cc2ccccc2)[C@H]2C1=CC[C@H]1C(=O)N(CC)C(=O)[C@H]12 |  | active: 16.4 µM
CCOc1ccc(N2CC(C(=O)NC3CCCC3)CC2=O)cc1 (configuration not stated) | inactive: -18.1% | 
O=C(NC(NC(=S)Nc1cc(Cl)ccc1Cl)C(Cl)(Cl)Cl)c1ccco1 (configuration not stated) |  | inconclusive [inhibitor, partial curve, poor fit]
CCOC(=O)C1(C)CCCCCN1C(=O)/C=C/c1ccccc1 (configuration not stated) |  | active: 16.4 µM
CCC1CCCCN1Cc1c(O)ccc2c(=O)c(Oc3ccccc3Cl)c(C(F)(F)F)oc12 (configuration not stated) |  | inconclusive [inhibitor, single point]
NC(=O)COc1ccc(/C=N\NC(=O)CC(=O)NCCc2ccccc2)cc1 | inactive: 20.2% | 
Cc1ccc(CNC(=O)c2ccc3c(c2)CCN3S(=O)(=O)c2ccccc2)cc1 |  | inconclusive [inhibitor, single point]
CC(C)C(NC(=O)c1ccccc1NC(=O)C(C)(C)C)C(=O)N1CCOCC1 (configuration not stated) | inactive: -1.54% | 
NC(=O)c1cc(-c2ccccc2)nc(N2CCOCC2)n1 |  | active: 20.6 µM
O=C(NC(=S)Nc1ccc(Br)cn1)c1cccs1 |  | inconclusive [inhibitor, single point]
O=C(NC1CCCCC1)c1cc(S(=O)(=O)N2CCN(c3ccccc3)CC2)ccc1Cl |  | inconclusive [inhibitor, single point]
O=C(c1cc(-c2cccs2)nn1-c1ccccc1)N1CCN(S(=O)(=O)c2ccccc2)CC1 |  | inconclusive [inhibitor, single point]
C[C@H]1[C@@H](c2ccccc2)Oc2ccc(Cl)cc2S(=O)(=O)N1Cc1ccc(F)cc1F |  | inconclusive [inhibitor, single point]
CCOc1ccc(OCC)c(NS(=O)(=O)c2c(C)[nH]c(=O)[nH]c2=O)c1 | inactive: -4.18% | 
O=C(Cn1cnc2nc3c(cc2c1=O)CCCC3)N1CCN(c2cccc(C(F)(F)F)c2)CC1 |  | inconclusive [inhibitor, single point]

Structure (SMILES) | activity change, negative = growth inhibition | Potency
COc1ccc(S(N)(=O)=O)cc1C(=O)NNC(=O)c1cccc(S(=O)(=O)N2CCOCC2)c1 |  | inconclusive [inhibitor, single point]
O=C(NC1CCN(Cc2ccccc2)CC1)C1CCCN(c2nnc(-n3cccc3)s2)C1 (configuration not stated) |  | inconclusive [inhibitor, single point]
COc1ccc(S(=O)(=O)N2CCCC2CNC(=O)C(=O)NC2CCCCCC2)cc1 (configuration not stated) |  | inconclusive [inhibitor, single point]
Cc1ccc(C)c(NC(=O)CSc2c(C)cnc3c2c(=O)n(C)c(=O)n3C)c1 | inactive: 4.37% | 
CC1(C(=O)NS(=O)(=O)C2CC2)CCCN(C(=O)c2ccccc2)C1 (configuration not stated) |  | active: 5.17 µM
COc1cnc(-c2cccc(C(F)(F)F)c2)[nH]c1=O |  | inconclusive [inhibitor, single point]
COc1cc(C2C(C#N)=C(N)Oc3n[nH]c(-c4cccs4)c32)cc(OC)c1O (configuration not stated) |  | inconclusive [inhibitor, single point]
O=NN(CCF)C(=O)NC1CCS(=O)(=O)CC1 |  | inconclusive [inhibitor, partial curve]
Cc1[nH]c2ccccc2c1C(=O)COC(=O)c1c(-c2ccccc2)noc1C |  | inconclusive [inhibitor, single point]
COc1ccc(CCNC(=O)c2csc3c2CCCCC3)c(OC)c1 |  | inconclusive [inhibitor, partial curve]
CC(C)N(C(=O)[C@H]1CC(CC(=O)NCCC2=CCCCC2)C(=O)N2CCc3c([nH]c4ccccc34)[C@]12C)C(C)C (some centres not stated) |  | inconclusive [inhibitor, single point]
Cn1c(-c2cccs2)[n+](C)c2ccccc21 |  | inconclusive [inhibitor, partial curve]
CCC(=O)N1c2ccccc2CC1C(=O)N1CCN(c2cccc(OC)c2)CC1 (configuration not stated) |  | inconclusive [inhibitor, single point]
CCCCCc1c(Cc2ccccc2)ncn1CCc1ccccc1OC |  | active: 2.59 µM
CC(C)(C)NC(=O)C(c1ccc(O)cc1)N(Cc1ccc2c(c1)OCO2)C(=O)CCl (configuration not stated) |  | inconclusive [inhibitor, single point]
Cc1ccccc1C(=O)NCC(=O)Nc1ccc(C)c(S(=O)(=O)N2CCCCCC2)c1 |  | inconclusive [inhibitor, single point]
CCOc1ccc2nc(N3CCCN(CCCn4cccn4)CC3)nc(C)c2c1 |  | inconclusive [inhibitor, single point]
Cc1cccc(NC(=O)CC2Nc3cccc4cccc(c34)NC2=O)c1 (configuration not stated) |  | active: 16.4 µM
Cc1cc(-c2ccc(C(C)C)c(S(=O)(=O)N3CCOc4ccccc43)c2)on1 |  | inconclusive [inhibitor, single point]
N#CC1=C(N)SC(N)=C(C#N)C1c1ccc([N+](=O)[O-])cc1 |  | active: 14.6 µM
COC(=O)c1cc2oc(C)cc2n1Cc1cc(C)ccc1C |  | inconclusive [inhibitor, partial curve]
CC(=O)Nc1ccc(NC(=O)CSCc2cnn(-c3ccccc3)c2-n2cccc2)cc1 | inactive: -0.201% | 
Cc1cccc(NC(=O)c2cc3c(=O)n4ccccc4nc3s2)c1 | inconclusive: -33.7% [inhibitor] | 

Structure (SMILES) | activity change, negative = growth inhibition | Potency
CC(=O)OC1CCC2(C)C(CCC3C2CC(=O)C2(C)C3CC(C3CCCC3=O)C2C(C)=O)C1 (configuration not stated) | inactive: -12% | 
CN(C)S(=O)(=O)c1cccc(NC(=O)COC(=O)COc2ccc(Br)cc2)c1 |  | inconclusive [inhibitor, single point]
Cc1noc(C)c1NC(=O)N(C)C[C@@H]1Oc2ncc(Br)cc2C(=O)N([C@@H](C)CO)C[C@@H]1C | inactive: -0.564% | 
O=C(CSc1nc2ccccc2[nH]1)N1CCN(c2ccc(F)cc2)CC1 |  | inconclusive [inhibitor, single point]
CCCn1c(NCc2ccc(C)o2)nc2ccccc21 |  | inconclusive [inhibitor, partial curve]
CCOc1ccc(N(CC(=O)NN=C2CCN(C)CC2)S(=O)(=O)c2ccc(Br)cc2)cc1 |  | inconclusive [inhibitor, partial curve]
O=C(O)C(Cc1ccccc1)N1C(=O)C2C3CCC(C3)C2C1=O (configuration not stated) | inactive: -16.1% | 
COc1cc(-c2nnc(COc3ccc4cc(Br)ccc4c3)o2)cc(OC)c1OC |  | active: 23.1 µM
O=c1[nH]cnc2c([N+](=O)[O-])cccc12 | inactive: -18.2% | 
COC(=O)c1cc(S(=O)(=O)NCC(C)c2ccccc2)cn1C (configuration not stated) | inactive: -19.7% | 
O=C(c1ccc(Cl)cc1Cl)N1CCN(c2ccccn2)CC1 |  | inconclusive [inhibitor, single point]
O=C(CSc1ccccc1C(=O)NCc1ccccc1)NC12CC3CC(CC(C3)C1)C2 |  | inconclusive [inhibitor, single point]
CC[C@]12c3[nH]c4ccc(OC)cc4c3CCN1C(=O)C(CC(=O)NCc1ccc(OC)c(OC)c1)C[C@@H]2C(=O)N1CCN(C(=O)C2CC2)CC1 (some centres not stated) | inactive: -21.8% | 
COC(=O)[C@@]1(Cc2ccc(F)cc2)[C@H]2c3cc(C(=O)N4CCCC4)n(Cc4ccc(Cl)c(C(F)(F)F)c4)c3C[C@H]2CN1C(=O)c1ccccc1 |  | active: 20.6 µM
CCCCNC(=O)c1onc(CSc2ccccc2CC)c1C(=O)O |  | inconclusive [inhibitor, single point]
C/C(=N\Nc1nc(C)cc(C)n1)c1ccc(N2CCOCC2)cc1 |  | inconclusive [inhibitor, single point]
COc1ccc(CNc2ccc(Cl)cc2)cc1Cn1ccnc1 |  | inconclusive [inhibitor, single point]
Cc1cc(/C=C2/C(=O)N(C)C(=S)N2C)c(C)n1C1CC1 |  | inconclusive [inhibitor, single point]
CCc1nc(NCC2CCCO2)c2oc3ccccc3c2n1 (configuration not stated) |  | inconclusive [inhibitor, single point]
CC(=O)OC1COC(N2CCc3cc(Br)c([N+](=O)[O-])cc32)C(OC(C)=O)C1OC(C)=O (configuration not stated) |  | inconclusive [inhibitor, single point]
CCOc1ccc(NC(=O)CSc2nc(-c3cccc(Cl)c3)nc3c2Cc2c(CO)cnc(C)c2O3)cc1 | inactive: -3.08% | 

Source: PubChem BioAssay AID686979 (National Center for Advancing Translational Sciences (NCATS), 2013)
